# Experimental data: patent US20260200964A1, “MONOSACCARIDES, PHARMACEUTICAL COMPOSITIONS, AND DIAGNOSTIC AND THERAPEUTIC APPLICATIONS” (Surio Therapeutics Co., LTD., priority 2022, published 2026)
# The name of at least one read-out is uncertain.
# Test system: A549 cells
# Experiment: Flow cytometry analysis of cell labeling (azido labeling efficiency)
# Assay type: cell-based
# Details: A549 cells (lung); azido compound 25 μM, 48 h; mean fluorescence of live cells compared with Ac4ManNAz (AAM) positive control
# Protocol: Cells (2.0×10^6 cells/mL, 2 mL) were seeded in a 6-well culture plate and attached at 37° C. overnight. After washed thrice with PBS, the cells were incubated with an azido compound (25 μM) at 37° C. for 48 h. After washed thrice with PBS, the cells were incubated with DBCO-biotin (50 μM) in 500 μL serum free DMEM at 37° C. for 1 h. The cells were washed thrice with PBS and then incubated with streptavidin-Cy5 (5 μg/mL) in 500 μL serum free DMEM at 37° C. for 1 h. The cells were washed thrice with PBS, followed by addition of 300 μL 1×trypsin/EDTA for digestion. The lifted cells were transferred to a 1.5 mL EP tube, centrifuge at 1,000 rpm for 3 min, and washed with PBS once. Finally, 500 μL PBS containing 4% PFA was added to the cell pellet to fix the cells. The cell suspension was transferred to a flow tube and mixed with 10 μL of a PI working solution (50 μg/mL) at room temperature for 30 min before being subjected to flow cytometry.
# Flow cytometry was used to characterize the labeling efficiency of a compound provided herein. After cells were labeled with an azido group, DBCO-biotin was added to specifically react with the azido group. Avidin-Cy5 was added bind to the cell surface biotin for a flow cytometry analysis. Dead cells were stained with PI and excluded from the analysis. Results were presented as the mean fluorescence of live cells, compared with PBS as a negative control and Ac4ManNAz (AAM) as a positive control, Ac4ManNAz (AAM, CAS: 361154-30-5).
row,Structure (SMILES),Labeling Efficiency AAM %
1,"CC(=O)NCCCC[C@H](NC(=O)OCc1ccccc1)C(=O)Nc1ccc(C(OC2OC(COC(C)=O)C(OC(C)=O)C(OC(C)=O)C2NC(=O)CN=[N+]=[N-])c2cnc[nH]2)cc1 (stereo partly drawn) [Compound A1, 1-O-(1-(imidazol-4-yl)-1-(4-(6-acetamido-2(S)-(benzyloxycarbonylamino)-hexanamido)phenyl)methyl)-2-(2-azidoacetylamino)-2-deoxy-3,4,6-tri-O-acetyl-D-mannopyranoside]",27%
2,"CC(=O)NCCCC[C@H](NC(=O)OCc1ccccc1)C(=O)Nc1ccc(C(OC2OC(COC(C)=O)C(OC(C)=O)C(OC(C)=O)C2NC(=O)CN=[N+]=[N-])c2cn(C)cn2)cc1 (stereo partly drawn) [Compound A2, 1-O-(1-(1-methylimidazol-4-yl)-1-(4-(6-acetamido-2(S)-(benzyloxycarbonylamino)-hexanamido)phenyl)methyl)-2-(2-azidoacetylamino)-2-deoxy-3,4,6-tri-O-acetyl-D-mannopyranoside]",37%
3,"CC(=O)NCCCC[C@H](NC(=O)OCc1ccccc1)C(=O)Nc1ccc(C(OC2OC(COC(C)=O)C(OC(C)=O)C(OC(C)=O)C2NC(=O)CN=[N+]=[N-])c2cccs2)cc1 (stereo partly drawn) [Compound A4, 1-O-(1-(thien-2-yl)-1-(4-(6-acetamido-2(S)-(benzyloxycarbonylamino)-hexanamido)phenyl)methyl)-2-(2-azidoacetylamino)-2-deoxy-3,4,6-tri-O-acetyl-D-mannopyranoside]",28%
4,"CC(=O)NCCCC[C@H](NC(=O)OCc1ccccc1)C(=O)Nc1ccc(C(OC2OC(COC(C)=O)C(OC(C)=O)C(OC(C)=O)C2NC(=O)CN=[N+]=[N-])c2ccsc2)cc1 (stereo partly drawn) [Compound A5, 1-O-(1-(Thien-3-yl)-1-(4-(6-acetamido-2(S)-(benzyloxycarbonylamino)hexan-amido)phenyl)methyl)-2-(2-azidoacetylamino)-2-deoxy-3,4,6-tri-O-acetyl-D-mannopyranoside]",44%
5,"CC(=O)NCCCC[C@H](NC(=O)OCc1ccccc1)C(=O)Nc1ccc(C(OC2OC(COC(C)=O)C(OC(C)=O)C(OC(C)=O)C2NC(=O)CN=[N+]=[N-])c2ccnn2C)cc1 (stereo partly drawn) [Compound A8, 1-O-(1-(2-methylpyrazol-3-yl)-1-(4-(6-acetamido-2(S)-(benzyloxycarbonyl-amino)hexanamido)phenyl)methyl)-2-(2-azidoacetylamino)-2-deoxy-3,4,6-tri-O-acetyl-D-mannopyranoside]",28%
6,"CC(=O)NCCCC[C@H](NC(=O)OCc1ccccc1)C(=O)Nc1ccc(C(OC2OC(COC(=O)C3CCOCC3)C(OC(C)=O)C(OC(C)=O)C2NC(=O)CN=[N+]=[N-])c2ccnn2C)cc1 (stereo partly drawn) [Compound A9, 1-O-(1-(2-methylpyrazol-3-yl)-1-(4-(6-acetamido-2(S)-(benzyloxycarbonyl-amino)hexanamido)phenyl)methyl)-2-(2-azidoacetylamino)-2-deoxy-3,4-di-O-acetyl-6-O-tetrahydropyran-4-ylcarbonyl-D-mannopyranoside]",31%
7,"CC(=O)NCCCC[C@H](NC(=O)OCc1ccccc1)C(=O)Nc1ccc(C(OC2OC(COC(=O)C3CCN(C)CC3)C(OC(C)=O)C(OC(C)=O)C2NC(=O)CN=[N+]=[N-])c2ccnn2C)cc1 (stereo partly drawn) [Compound A10, 1-O-(1-(2-Methylpyrazol-3-yl)-1-(4-(6-acetamido-2(S)-(benzyloxycarbonyl-amino)hexanamido)phenyl)methyl)-2-(2-azidoacetylamino)-2-deoxy-3,4-di-O-acetyl-6-O-(1-methylpiperidin-4-yl)carbonyl-D-mannopyranoside]",26%
8,"CC(=O)NCCCC[C@H](NC(=O)OCc1ccccc1)C(=O)Nc1ccc(C(OC2OC(COC(=O)Cc3cccnc3)C(OC(C)=O)C(OC(C)=O)C2NC(=O)CN=[N+]=[N-])c2ccnn2C)cc1 (stereo partly drawn) [Compound A12, 1-O-(1-(2-Methylpyrazol-3-yl)-1-(4-(6-acetamido-2(S)-(benzyloxycarbonyl-amino)hexanamido)phenyl)methyl)-2-(2-azidoacetylamino)-2-deoxy-3,4-di-O-acetyl-6-O-(pyridin-3-ylacetyl)-D-mannopyranoside]",17%
9,"CC(=O)NCCCC[C@H](NC(=O)OCc1ccccc1)C(=O)Nc1ccc(C(OC2OC(COC(=O)c3cccnc3)C(OC(C)=O)C(OC(C)=O)C2NC(=O)CN=[N+]=[N-])c2ccnn2C)cc1 (stereo partly drawn) [Compound A13, 1-O-(1-(2-Methylpyrazol-3-yl)-1-(4-(6-acetamido-2(S)-(benzyloxycarbonyl-amino)hexanamido)phenyl)methyl)-2-(2-azidoacetylamino)-2-deoxy-3,4-di-O-acetyl-6-O-(pyridin-3-ylcarbonyl)-D-mannopyranoside]",21%
10,"CC(=O)NCCCC[C@H](NC(C)=O)C(=O)Nc1ccc(C(OC2OC(COC(C)=O)C(OC(C)=O)C(OC(C)=O)C2NC(=O)CN=[N+]=[N-])c2ccnn2C)cc1 (stereo partly drawn) [Compound A14, 1-O-(1-(2-Methylpyrazol-3-yl)-1-(4-(2(S),6-diacetamidohexanamido)phenyl)-methyl)-2-(2-azidoacetylamino)-2-deoxy-3,4,6-tri-O-acetyl-D-mannopyranoside]",66%
11,"CC(=O)NCCCC[C@H](NC(C)=O)C(=O)Nc1ccc(C(OC2OC(COC(C)=O)C(OC(C)=O)C(OC(C)=O)C2NC(=O)CN=[N+]=[N-])c2nccs2)cc1 (stereo partly drawn) [Compound A15, 1-O-(1-(Thiazol-2-yl)-1-(4-(2(S),6-diacetamidohexanamido)phenyl)methyl)-2-(2-azidoacetylamino)-2-deoxy-3,4,6-tri-O-acetyl-D-mannopyranoside]",50%
12,"CC(=O)NCCCC[C@H](NC(C)=O)C(=O)Nc1ccc(C(OC2OC(COC(C)=O)C(OC(C)=O)C(OC(C)=O)C2NC(=O)CN=[N+]=[N-])c2cncs2)cc1 (stereo partly drawn) [Compound A16, 1-O-(1-(Thiazol-5-yl)-1-(4-(2(S),6-diacetamidohexanamido)phenyl)methyl)-2-(2-azidoacetylamino)-2-deoxy-3,4,6-tri-O-acetyl-D-mannopyranoside]",30%
13,"CC(=O)NCCCC[C@H](NC(C)=O)C(=O)Nc1ccc(C(OC2OC(COC(=O)Cc3cccnc3)C(OC(C)=O)C(OC(C)=O)C2NC(=O)CN=[N+]=[N-])c2ccnn2C)cc1 (stereo partly drawn) [Compound A17, 1-O-(1-(2-Methylpyrazol-3-yl)-1-(4-(2(S),6-diacetamidohexanamido)phenyl)-methyl)-2-(2-azidoacetylamino)-2-deoxy-3,4-di-O-acetyl-6-O-(pyridin-3-ylacetyl)-D-mannopyranoside]",19%
14,"CC(=O)NCCCC[C@H](NC(C)=O)C(=O)Nc1ccc(C(OC2OC(COC(=O)C3CCN(C)CC3)C(OC(C)=O)C(OC(C)=O)C2NC(=O)CN=[N+]=[N-])c2ccnn2C)cc1 (stereo partly drawn) [Compound A18, 1-O-(1-(2-Methylpyrazol-3-yl)-1-(4-(2(S),6-diacetamidohexanamido)phenyl)-methyl)-2-(2-azidoacetylamino)-2-deoxy-3,4-di-O-acetyl-6-O-(1-methylpiperidin-4-ylcarbonyl)-D-mannopyranoside]",10%
